The name of at least one read-out is uncertain.
Columns and labels:
Format in all cases: in vivo
Conditions in all cases: evaluated after 13 days
Setaria faberi (SETFA) [1] = assay: Post-emergence Test (Table B2), SETFA; set-up: key: five-point scale: 5=81-100%, 4=61-80%, 3=41-60%, 2=21-40%, 1=0-20% damage
Method: (§1) Seeds of a variety of test species are sown in standard soil in pots (Ipomoea hederacea (IPOHE), Zea mays (ZEAMX), Echinochloa crus-galli (ECHCG), Amaranthus palmeri (AMAPA), (Amaranthus retoflexus (AMARE), and (Setaria faberi (SETFA)). After 8 days cultivation under controlled conditions in a glasshouse (at 24° C./16° C., day/night; 14 hours light; 65% humidity), the plants are sprayed with an aqueous spray solution derived from the formulation of the technical active ingredient in acetone/water (50:50) solution containing 0.5% Tween 20 (polyoxyethelyene sorbitan monolaurate, CAS RN 9005-64-5). Rate of application is shown in g/ha in the tables below. The test plants are then grown in a glasshouse under controlled conditions in a glasshouse (at 24° C./16° C., day/night; 14 hours light; 65% humidity) and watered twice daily. After 13 days the test is evaluated for the percentage damage caused to the plant. The biological activities are shown in the following table on a five-point scale (5=81-100%; 4=61-80%; 3=41-60%; 2=21-40%; 1=0-20%; -=not tested).

[2] = tested on: Ipomoea hederacea (IPOHE); assay: Post-emergence Test (Table B2), IPOHE; set-up: key: five-point scale: 5=81-100%, 4=61-80%, 3=41-60%, 2=21-40%, 1=0-20% damage
Method: as §1

Setaria faberi (SETFA) [3] = assay: Pre-emergence Test (Table B1), SETFA
[4] = tested on: Echinochloa crus-galli (ECHCG); assay: Pre-emergence Test (Table B1), ECHCG
[5] = tested on: Amaranthus retoflexus (AMARE); assay: Post-emergence Test (Table B2), AMARE; set-up: key: five-point scale: 5=81-100%, 4=61-80%, 3=41-60%, 2=21-40%, 1=0-20% damage
Method: as §1

[6] = tested on: Echinochloa crus-galli (ECHCG); assay: Post-emergence Test (Table B2), ECHCG; set-up: key: 5-point damage scale: 5=81-100%, 4=61-80%, 3=41-60%, 2=21-40%, 1=0-20%
Method: as §1

[7] = tested on: Amaranthus palmeri (AMAPA); assay: Post-emergence Test (Table B2), AMAPA; set-up: key: five-point scale: 5=81-100%, 4=61-80%, 3=41-60%, 2=21-40%, 1=0-20% damage
Method: as §1

Zea mays (ZEAMX) = assay: Post-emergence Test (Table B2), ZEAMX; set-up: key: 5-point damage scale: 5=81-100%, 4=61-80%, 3=41-60%, 2=21-40%, 1=0-20%
Method: as §1

| Compound | Pre-emergence Test, percentage damage caused to the plant (five-point scale), ECHCG ([4]; Rate 1000 g/Ha) | percentage damage caused to the plant, AMARE ([5]; rate 1000 g/Ha) | percentage damage caused to the plant, IPOHE ([2]; rate 1000 g/Ha) | percentage damage caused to the plant, ECHCG ([6]; rate 1000 g/Ha) | percentage damage caused to the plant, AMAPA ([7]; rate 1000 g/Ha) | percentage damage caused to the plant, ZEAMX (Zea mays (ZEAMX); rate 1000 g/Ha) | Pre-emergence Test, percentage damage caused to the plant (five-point scale), SETFA (Setaria faberi (SETFA) [3]; Rate 1000 g/Ha) | percentage damage caused to the plant, SETFA (Setaria faberi (SETFA) [1]; rate 1000 g/Ha) | further results |
| --- | --- | --- | --- | --- | --- | --- | --- | --- | --- |
| CCn1c(Cc2cncc(Cl)c2)cc(=O)c(C(=O)O)c1-c1ccc(Cl)c(Cl)c1 [Compound 17, 6-[(5-chloro-3-pyridyl)methyl]-2-(3,4-dichlorophenyl]-1-ethyl-4-oxo-pyridine-3-carboxylic acid] |  |  |  |  |  |  |  |  | percentage damage caused to the plant, SETFA (Setaria faberi (SETFA) [1]; rate 250 g/Ha): 2 (2=21-40%); percentage damage caused to the plant, IPOHE ([2]; rate 250 g/Ha): 3 (3=41-60%); Pre-emergence Test, percentage damage caused to the plant (five-point scale), SETFA (Setaria faberi (SETFA) [3]; Rate 250 g/Ha): 1 (1=0-20%) |
| CCn1c(Cc2ccc(SC)cc2)cc(=O)c(C(=O)O)c1-c1ccc(Cl)c(Cl)c1 [Compound 28, 2-(3,4-dichlorophenyl)-1-ethyl-6-[(4-methylsulfanylphenyl)methyl]-4-oxo-pyridine-3-carboxylic acid] | 2 (2=21-40%) | 1 (1=0-20%) | 1 (1=0-20%) | 3 (3=41-60%) | 1 (1=0-20%) |  |  |  |  |
| CCn1c(Cc2cc(F)cc(F)c2)cc(=O)c(C(=O)O)c1-c1ccc(Cl)c(Cl)c1 [Compound 29, 2-(3,4-dichlorophenyl)-6-[(3,5-difluorophenyl)methyl]-1-ethyl-4-oxo-pyridine-3-carboxylic acid] | 1 (1=0-20%) | 1 (1=0-20%) | 2 (2=21-40%) | 2 (2=21-40%) | 1 (1=0-20%) |  |  |  |  |
| CCn1c(Cc2cccc(F)c2)cc(=O)c(C(=O)O)c1-c1ccc(Cl)c(Cl)c1 [Compound 37, 2-(3,4-dichlorophenyl)-1-ethyl 6-[(3-fluorophenyl)methyl]-4-oxo-pyridine-3-carboxylic acid] | 1 (1=0-20%) | 2 (2=21-40%) | 2 (2=21-40%) | 3 (3=41-60%) | 2 (2=21-40%) |  |  |  |  |
| CCn1c(Cc2ccsc2)cc(=O)c(C(=O)O)c1-c1ccc(Cl)c(Cl)c1 [Compound 51, 2-(3,4-dichlorophenyl)-1-ethyl-4-oxo-6-(3-thienylmethyl) pyridine-3-carboxylic acid] | 1 (1=0-20%) | 2 (2=21-40%) | 2 (2=21-40%) | 2 (2=21-40%) | 2 (2=21-40%) | 2 (2=21-40%) |  |  |  |
| CCn1c(Cc2ccc(OC(F)(F)F)cc2C)cc(=O)c(C(=O)O)c1-c1ccc(Cl)c(Cl)c1 [Compound 63, 2-(3,4-dichlorophenyl)-1-ethyl-6-[[2-methyl-4-(trifluoromethoxy)phenyl]methyl]-4-oxo-pyridine-3-carboxylic acid] | 3 (3=41-60%) |  |  |  |  |  | 3 (3=41-60%) |  |  |
| CCn1c(Cc2ccc(C)cc2F)cc(=O)c(C(=O)O)c1-c1ccc(Cl)c(Cl)c1 [Compound 67, 2-(3,4-dichlorophenyl)-1-3ethyl-6-[(2-fluoro-4-methyl-phenyl)methyl]-4-oxo-pyridine-3-3-carboxylic acid] |  |  |  |  |  |  |  |  | Pre-emergence Test, percentage damage caused to the plant (five-point scale), ECHCG ([4]; Rate 250 g/Ha): 3 (3=41-60%); percentage damage caused to the plant, AMARE ([5]; rate 250 g/Ha): 1 (1=0-20%); percentage damage caused to the plant, IPOHE ([2]; rate 250 g/Ha): 2 (2=21-40%); percentage damage caused to the plant, ZEAMX (Zea mays (ZEAMX); rate 250 g/Ha): 1 (1=0-20%); Pre-emergence Test, percentage damage caused to the plant (five-point scale), SETFA (Setaria faberi (SETFA) [3]; Rate 250 g/Ha): 3 (3=41-60%) |
| CCn1c(Cc2ccc(OC)cc2Cl)cc(=O)c(C(=O)O)c1-c1ccc(Cl)c(Cl)c1 [Compound 69, 6-[(2-chloro-4-methoxy-phenyl)methyl]-2-(3,4-dichlorophenyl)-1-ethyl-4-oxo-pyridine-3-carboxylic acid] | 3 (3=41-60%) |  | 1 (1=0-20%) |  |  | 1 (1=0-20%) | 3 (3=41-60%) | 1 (1=0-20%) |  |
| CCn1c(Cc2ccc(Cl)cc2F)cc(=O)c(C(=O)O)c1-c1ccc(Cl)c(Cl)c1 [Compound 79, 6-[(4-chloro-2-fluoro-phenyl)methyl]-2-(3,4-dichlorophenyl)-1-ethyl-4-oxo-pyridine-3-carboxylic acid] |  | 4 (4=61-80%) | 2 (2=21-40%) | 3 (3=41-60%) | 3 (3=41-60%) | 1 (1=0-20%) |  | 3 (3=41-60%) |  |
| CCn1c(Cc2ccc(OC)c(F)c2)cc(=O)c(C(=O)O)c1-c1ccc(Cl)c(Cl)c1 [Compound 83, 2-(3,4-dichlorophenyl)-1-ethyl-6-[(3-fluoro-4-methoxy-phenyl)methyl]-4-oxo-pyridine-3-carboxylic acid] | 2 (2=21-40%) | 2 (2=21-40%) | 3 (3=41-60%) | 1 (1=0-20%) | 2 (2=21-40%) | 1 (1=0-20%) | 2 (2=21-40%) | 2 (2=21-40%) |  |
| CCOC(=O)c1cccc(Cc2cc(=O)c(C(=O)O)c(-c3ccc(Cl)c(Cl)c3)n2CC)n1 [Compound 102, 2-(3,4-dichlorophenyl)-6-[(6-ethoxycarbonylpyridin-1-ium-2-yl)methyl]-1-ehtyl-4-oxo-pyridine-3-carboxylic acid; 2,2,2-trifluoroacetate] | 2 (2=21-40%) | 1 (1=0-20%) | 2 (2=21-40%) | 1 (1=0-20%) | 2 (2=21-40%) |  | 2 (2=21-40%) | 2 (2=21-40%) |  |
| CCn1c(Cc2ccc(C#N)c(F)n2)cc(=O)c(C(=O)O)c1-c1ccc(Cl)c(Cl)c1 [Compound 112, 6-[(5-cyano-6-fluoro-2-pyridyl)methyl]-2-(3,4-dichlorophenyl)-1-ethyl-4-oxo-pyridine-3-carboxylic acid] |  |  |  |  |  |  |  |  | percentage damage caused to the plant, SETFA (Setaria faberi (SETFA) [1]; rate 62.5 g/Ha): 1 (1=0-20%); percentage damage caused to the plant, AMARE ([5]; rate 62.5 g/Ha): 1 (1=0-20%); percentage damage caused to the plant, IPOHE ([2]; rate 62.5 g/Ha): 2 (2=21-40%); percentage damage caused to the plant, ZEAMX (Zea mays (ZEAMX); rate 62.5 g/Ha): 1 (1=0-20%); percentage damage caused to the plant, ECHCG ([6]; rate 62.5 g/Ha): 1 (1=0-20%); Pre-emergence Test, percentage damage caused to the plant (five-point scale), SETFA (Setaria faberi (SETFA) [3]; Rate 62.5 g/Ha): 1 (1=0-20%); percentage damage caused to the plant, AMAPA ([7]; rate 62.5 g/Ha): 1 (1=0-20%) |
| CCn1c(Cc2cc(C)n(C)n2)cc(=O)c(C(=O)O)c1-c1ccc(Cl)c(Cl)c1 [Compound 120, 2-(3,4-dichlorophenyl)-6-[(1,5-dimethylpyrazol-3-yl)methyl]-1-ethyl-4-oxo-pyridine-3-carboxylic acid] |  |  |  |  |  |  |  |  | percentage damage caused to the plant, SETFA (Setaria faberi (SETFA) [1]; rate 250 g/Ha): 4 (4=61-80%); percentage damage caused to the plant, IPOHE ([2]; rate 250 g/Ha): 3 (3=41-60%); percentage damage caused to the plant, ZEAMX (Zea mays (ZEAMX); rate 250 g/Ha): 1 (1=0-20%); percentage damage caused to the plant, ECHCG ([6]; rate 250 g/Ha): 1 (1=0-20%); Pre-emergence Test, percentage damage caused to the plant (five-point scale), SETFA (Setaria faberi (SETFA) [3]; Rate 250 g/Ha): 3 (3=41-60%) |
